# Values quoted from earlier work in US20220323482A1, “LNP-[…] THERAPEUTICS AND USE THEREOF FOR TREATING HUMAN SUBJECTS” (priority 2019, published 2022).
# System: chikungunya virus strains from African, Asian, and American viral lineages
molecule,measurement,value
CHIKV-24 (antibody) heavy: QVQLVESGGGVVQPGKSLRLSCAASGFTFRNYGMHWVRQAPGKGLDWVALISYDGTHKYYKDSLKGRFTISRDNFQNTVDLQINSLRPDDTAVYYCAKELATSGVVEPLDSWGQGTLVTVSS[omitted - human IgG1 constant region with changes] light: EIVLTQSPGTLSLSPGERATLSCRASQSLVSSYFGWYQQKRGQSPRLLIYAASTRATGIPDRFSGSGSGTDFTLTISRLEPEDFAVYYCQQYGNTPFTFGGGTKVEIKRTVAAPSVFIFPPSDEQLKSGTASVVCLLNNFYPREAKVQWKVDNALQSGNSQESVTEQDSKDSTYSLSSTLTLSKADYEKHKVYACEVTHQGLSSPVTKSFNRGEC,in vitro neutralizing activity EC50,< 0.01 mg/L
